Measurements taken from PubChem BioAssay (NCATS).
Values joined by “and” are separate entries in the source; they are usually repeats but may differ in a detail not shown here. Equal entries are not always repeated. The list shows a part of the results. The main result of the screen is listed elsewhere. These columns were measured beside it and carry no call. Words in brackets tell the shape of the fitted curve; partial curves, single points and poor fits give uncertain potencies.

Test: qHTS drug screen for cell cycle checkpoint inhibitors in PARPi-resistant BRCA-mutant ovarian cancer cell lines. (AID 1963452)
Settings: PEO1/OlaR viability, CellTiter-Glo luminescence, 96 h
Outline: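 PEO1, PEO4 and PEO1/OlaR ovarian cancer cells, 600 per well, exposed 96 h at 37C to a dilution series. Viability read by CellTiter-Glo luminescence, normalized to DMSO and empty wells; activity summarized as Z-AUC.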

[1] = measured here: PEO1 parental viability
Tags tell the direction and shape of the fitted curve.

| Structure (SMILES) | AC50 [1] | AC50 (measured here: PEO4 viability) |
| --- | --- | --- |
| Nc1cc(C(F)(F)F)c(-c2nc(N3CCOCC3)nc(N3CCOCC3)n2)cn1 | 5.49 µM [falling, partial curve] | 4.36 µM [falling, partial curve] |
| CC#CC(=O)N1CC[C@@H](n2c(=O)n(-c3ccc(Oc4ccccc4)cc3)c3c(N)ncnc32)C1 | 13.8 µM [falling, single point] | 24.5 µM [falling, single point] |
| CC[C@@H]1[C@H](F)C(=O)N[C@@H]1COc1nccc2cc(C(N)=O)c(OC)cc12 | 12.3 µM [falling, partial curve, poor fit] | 17.4 µM [falling, single point] |
| c1ccc(-c2ccc(CNc3nc(-c4ccccn4)nnc3-c3ccccc3)cc2)cc1 | 0.616 µM [falling, full curve] | 1.23 µM [falling, full curve] |
| O=C(O)C[C@H](O)C[C@H](O)/C=C/c1c(C2CC2)nc2ccccc2c1-c1ccc(F)cc1 | 1.74 µM [falling, full curve] | 0.616 µM [falling, full curve] |
| Cc1cc(C)c(CNC(=O)c2cc(-c3ccc(N4CCN(C)CC4)nc3)cc3c2c(C)cn3C(C)C)c(=O)[nH]1 | 15.5 µM [falling, single point] and 27.5 µM [falling, partial curve, poor fit] | 12.3 µM [falling, partial curve, poor fit] and 24.5 µM [falling, single point] |
| Cc1c[nH]c2nc(Nc3ccc(N4CCN(C)CC4)c(F)c3)nc(-c3cccc(CC#N)c3)c12 | 1.74 µM [falling, full curve] | 3.09 µM [falling, full curve] |
| CC(=O)O/N=C1/C(c2c(O)[nH]c3cc(Br)ccc23)=Nc2ccccc21 | 15.5 µM [falling, partial curve] | 15.5 µM [falling, partial curve] |
| C[C@@H](Oc1cc(C(=O)Nc2ccc(C(=O)N3CCN(C)CC3)cc2)nnc1N)c1c(Cl)ccc(F)c1Cl | 6.92 µM [falling, partial curve] | 1.55 µM [falling, full curve] |
| CS[C@H]1SC[C@@H]2C(=O)N(C)[C@H](C(C)C)C(=O)OC[C@H](NC(=O)c3cnc4ccccc4n3)C(=O)N[C@H](C)C(=O)N(C)[C@H]1C(=O)N(C)[C@H](C(C)C)C(=O)OC[C@H](NC(=O)c1cnc3ccccc3n1)C(=O)N[C@H](C)C(=O)N2C | 0.0062 µM [falling, full curve] | 0.0078 µM [falling, full curve, poor fit] |
| Cc1ccc(C(=O)Nc2ccc(Oc3cc4cnn(C)c4cc3-c3cn[nH]c3)c(F)c2)c(=O)n1-c1ccc(F)cc1 | 5.49 µM [falling, partial curve] | 2.75 µM [falling, full curve] |
| COc1cc(=C2C=c3ccccc3=N2)[nH]/c1=C/c1[nH]c(C)cc1C | 24.5 µM [falling, single point] | 27.5 µM [falling, single point] |
| COc1ccc2[nH]c3c(c2c1)CCN[C@]31CS[C@@H]2c3c(OC(C)=O)c(C)c4c(c3[C@H](COC1=O)N1[C@@H]2[C@H]2c3c(cc(C)c(OC)c3O)C[C@@H]([C@@H]1O)N2C)OCO4 | 0.0112 µM [falling, full curve] | 0.02 µM [falling, full curve] |
| Cc1ccc(Nc2ncc3c(n2)N(C)C(=O)N(c2cc(NC(=O)c4cccc(C(F)(F)F)c4)ccc2C)C3)cn1 | 0.0977 µM [falling, full curve] | 1.38 µM [falling, partial curve, poor fit] |
| CCCc1cc(C)[nH]c(=O)c1CNC(=O)c1cc(-c2ccnc(N3CCN(C)CC3)c2)cc2c1cnn2C(C)C | 21.9 µM [falling, single point] | 15.5 µM [falling, single point] |
| O=C(/C=C\n1cnc(-c2cc(C(F)(F)F)cc(C(F)(F)F)c2)n1)N1CC(F)(F)C1 | 0.195 µM [falling, full curve] | 0.549 µM [falling, full curve] |
